Measurements taken from paper PMC9767466.
These are yes or no findings as the source states them, for the method shown. Some results given as binding are weak or reduced against the parent protein; the word gives no strength. Sequences can lack the tags named with a protein.

Experiments:
Experiment in all cases: two-hybrid; separate yeast two-hybrid method, as described in Luck et al., 2020; EROS against the NOX family and p22phox
[1] = molecular target: T1, NOX4, yeast two-hybrid fusion (method of Luck et al., 2020) (UniProt Q9NPH5)
T1 sequence: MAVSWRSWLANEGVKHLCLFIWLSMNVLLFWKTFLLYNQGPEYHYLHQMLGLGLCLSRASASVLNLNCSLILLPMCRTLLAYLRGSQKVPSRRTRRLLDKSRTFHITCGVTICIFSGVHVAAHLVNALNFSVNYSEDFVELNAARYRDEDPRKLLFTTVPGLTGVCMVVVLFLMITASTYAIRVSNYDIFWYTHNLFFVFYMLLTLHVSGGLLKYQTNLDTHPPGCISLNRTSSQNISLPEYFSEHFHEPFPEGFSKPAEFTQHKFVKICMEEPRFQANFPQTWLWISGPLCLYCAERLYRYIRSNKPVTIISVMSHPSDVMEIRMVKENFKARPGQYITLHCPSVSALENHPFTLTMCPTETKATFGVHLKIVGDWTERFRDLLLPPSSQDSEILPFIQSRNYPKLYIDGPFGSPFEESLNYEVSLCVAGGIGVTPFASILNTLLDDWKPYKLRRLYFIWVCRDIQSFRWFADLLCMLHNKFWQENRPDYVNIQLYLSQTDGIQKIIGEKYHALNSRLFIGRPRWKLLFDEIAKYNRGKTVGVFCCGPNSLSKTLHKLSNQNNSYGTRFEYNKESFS

[2] = molecular target: T2, NOX5, yeast two-hybrid fusion (method of Luck et al., 2020) (UniProt Q96PH1)
T2 sequence: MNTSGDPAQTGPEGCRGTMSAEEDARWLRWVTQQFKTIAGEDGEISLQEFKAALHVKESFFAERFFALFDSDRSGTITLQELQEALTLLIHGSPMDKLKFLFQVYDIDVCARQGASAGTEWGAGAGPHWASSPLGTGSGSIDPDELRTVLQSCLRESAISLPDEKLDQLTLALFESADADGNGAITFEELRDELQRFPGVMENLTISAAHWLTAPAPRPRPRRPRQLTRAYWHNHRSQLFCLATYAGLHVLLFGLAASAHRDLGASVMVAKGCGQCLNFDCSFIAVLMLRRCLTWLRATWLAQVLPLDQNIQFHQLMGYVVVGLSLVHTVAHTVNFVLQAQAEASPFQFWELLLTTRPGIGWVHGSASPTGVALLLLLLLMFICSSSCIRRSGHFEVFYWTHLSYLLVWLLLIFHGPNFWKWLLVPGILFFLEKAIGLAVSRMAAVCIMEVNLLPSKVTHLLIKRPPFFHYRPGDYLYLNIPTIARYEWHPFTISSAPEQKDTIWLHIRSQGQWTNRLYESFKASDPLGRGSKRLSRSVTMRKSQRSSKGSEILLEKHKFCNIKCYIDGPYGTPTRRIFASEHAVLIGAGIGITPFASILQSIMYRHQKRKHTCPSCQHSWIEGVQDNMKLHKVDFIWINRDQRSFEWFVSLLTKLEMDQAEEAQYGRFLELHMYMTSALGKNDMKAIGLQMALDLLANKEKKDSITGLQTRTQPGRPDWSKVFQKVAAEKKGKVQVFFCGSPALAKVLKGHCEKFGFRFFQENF

[3] = molecular target: T3, p22phox, yeast two-hybrid fusion (method of Luck et al., 2020) (UniProt P13498)
T3 sequence: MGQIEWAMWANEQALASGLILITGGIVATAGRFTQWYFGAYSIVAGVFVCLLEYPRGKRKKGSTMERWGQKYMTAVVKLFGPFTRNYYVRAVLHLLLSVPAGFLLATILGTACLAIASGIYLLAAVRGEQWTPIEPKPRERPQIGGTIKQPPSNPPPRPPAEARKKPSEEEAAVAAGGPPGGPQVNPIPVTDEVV

[4] = molecular target: T4, NOX3, yeast two-hybrid fusion (method of Luck et al., 2020) (UniProt Q9HBY0)
T4 sequence: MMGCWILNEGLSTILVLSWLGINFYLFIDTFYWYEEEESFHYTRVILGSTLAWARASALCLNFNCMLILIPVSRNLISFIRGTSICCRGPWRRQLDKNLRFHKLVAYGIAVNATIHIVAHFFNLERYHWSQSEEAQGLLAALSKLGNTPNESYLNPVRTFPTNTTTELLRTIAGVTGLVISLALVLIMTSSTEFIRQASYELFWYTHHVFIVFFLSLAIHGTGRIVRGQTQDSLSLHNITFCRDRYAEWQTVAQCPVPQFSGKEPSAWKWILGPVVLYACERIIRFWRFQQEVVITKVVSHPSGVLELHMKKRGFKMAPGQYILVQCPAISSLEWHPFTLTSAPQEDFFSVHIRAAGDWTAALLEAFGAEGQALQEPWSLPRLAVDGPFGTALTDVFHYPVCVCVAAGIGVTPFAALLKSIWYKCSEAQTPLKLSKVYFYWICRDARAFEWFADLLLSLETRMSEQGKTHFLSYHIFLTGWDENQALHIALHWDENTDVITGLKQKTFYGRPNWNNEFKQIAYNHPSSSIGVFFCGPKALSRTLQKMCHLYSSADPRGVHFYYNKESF

B1: EROS, yeast two-hybrid fusion (method of Luck et al., 2020) (protein, UniProt Q9BQA9 1-187)
chain: MYLQVETRTSSRLHLKRAPGIRSWSLLVGILSIGLAAAYYSGDSLGWKLFYVTGCLFVAVQNLEDWEEAIFDKSTGKVVLKTFSLYKKLLTLFRAGHDQVVVLLHDVRDVSVEEEKVRYFGKGYMVVLRLATGFSHPLTQSAVMGHRSDVEAIAKLITSFLELHCLESPTELSQSSDSEAGDPASQS
- binding [1]: binds
- binding [2]: no binding
- binding [3]: no binding
- binding [4]: binds
